Among all 150,000 compounds or so, about 540 (0.36%) showed an effect of 50% or more. This is one part of the list.
Each molecule was assayed on Plasmodium falciparum (assay: Primary screen in NF54 nanoGlo assay, in single point, at 2uM, 72h; a lower Z score goes with more inhibition). Conditions: timepoint 72 hour.
Format: functional, Erythrocyte
With `CCOC(=O)c1c(C)nc(Nc2nc3ccccc3s2)nc1C` the “% Inhibition” value was -2% and the Z score was 0.46. In the case of `C[C@@]1(c2noc(C3CC3)n2)CCCCN1C(=O)CC1CCCCC1`, the “% Inhibition” value is reported as -5% and the Z score is reported as 0.64. For `Cc1ccc(N2C[C@H](Cc3ccccc3)N(C(=O)c3cccn3C)CC2=O)cc1`, the “% Inhibition” value was -1% and the Z score was 0.12. In the case of `CCCC1CC1NC(=O)Nc1cnns1` (centres undefined), the “% Inhibition” value is reported as 29% and the Z score is reported as -3.25. For `C[C@H]1c2ccsc2CCN1c1ncnc2c1cnn2CCC#N`, the “% Inhibition” value was -2% and the Z score was 0.35. With `CNC(=O)N1CCC(n2c(C)nc(C(=O)NCc3ccc(OC)cc3)c2C)CC1` the “% Inhibition” value was -10% and the Z score was 1.69. In the case of `CC(C)NS(=O)(=O)N1CCN(C(=O)c2csc3ccccc23)CC1`, the “% Inhibition” value is reported as -4% and the Z score is reported as 0.65. `Cc1ccc(C(=O)NC[C@@H](O)Cc2ccc(F)cc2F)c(=O)[nH]1` was tested, and the “% Inhibition” value was -8% and the Z score was 0.97. With `COc1cc2c(cc1OC)CN(C(=O)C1(N)Cc3ccccc3C1)CC2` the “% Inhibition” value was -16% and the Z score was 2.11. For `Cc1cc(C)cc(CNCc2ccc(CN3CCC(O)CC3)cc2)c1`, the “% Inhibition” value was 19% and the Z score was -2.72. In the case of `OCC1(CNc2ccnc3ccsc23)CCOCC1`, the “% Inhibition” value is reported as -4% and the Z score is reported as 0.38. With `O=C(NCc1ccccc1)c1cc(NS(=O)(=O)c2ccccc2F)ccc1N1CCNCC1` the “% Inhibition” value was -19% and the Z score was 2.25. In the case of `CCN(c1ccccc1)S(=O)(=O)c1ccc(-c2[nH]ncc2C(=O)N2CCCCC2)o1`, the “% Inhibition” value is reported as -16% and the Z score is reported as 1.9. `CN1CCN(C[C@@H](O)CN2C(=O)c3ccccc3C2=O)CC1` was tested, and the “% Inhibition” value was -7% and the Z score was 0.67. With `CC[C@H](Oc1ccc(F)cc1)C(=O)Nc1ccc(-n2cnnn2)cc1` the “% Inhibition” value was -1% and the Z score was 0.09. With `O=C(c1ccc(C(F)F)c(F)c1)N1CCC[C@H]1c1nnn[nH]1` the “% Inhibition” value was -1% and the Z score was 0.17. With `Cn1cc(NC(=O)CCc2ccccn2)cc(Br)c1=O` the “% Inhibition” value was -10% and the Z score was 1.66. For `OC[C@H]1CCCN1Cc1ccc(Br)o1`, the “% Inhibition” value was -7% and the Z score was 1.14. In the case of `O=C([C@@H]1CCC(=O)N1S(=O)(=O)c1ccccc1)N1CCN(Cc2ccc3c(c2)OCO3)CC1`, the “% Inhibition” value is reported as -7% and the Z score is reported as 1.04. With `Cc1cnn(CCCNC2CCN(c3nnc(-c4ccccc4)s3)CC2)c1` the “% Inhibition” value was -12% and the Z score was 1.49. In the case of `O[C@@H](CCc1ccccc1)C1CCN(Cc2ccncc2Cl)CC1`, the “% Inhibition” value is reported as -4% and the Z score is reported as 0.71. `O=C(Nc1cnn(CC(=O)N2CCOCC2)c1)NC1CC2CC2C1` (centres undefined) was tested, and the “% Inhibition” value was 1% and the Z score was -0.2. `CCCCn1nc(CC(C)C)nc1[C@H](C)n1ccnc1C` was tested, and the “% Inhibition” value was 2% and the Z score was -0.31. With `CN(C)c1ccc(C(=O)N(C2CCCC2)C2CC2)cn1` the “% Inhibition” value was 1% and the Z score was -0.11. For `CC(C)(C)CN1CCC(Oc2cc(Cl)ccc2C(=O)N2CCCCC2)CC1`, the “% Inhibition” value was -1% and the Z score was 0.21. With `Cc1nc(C(=O)Oc2ccc(F)cc2)cs1` the “% Inhibition” value was -2% and the Z score was 0.25. In the case of `Cn1cnnc1CNC[C@H](O)c1ccc(Cl)cc1`, the “% Inhibition” value is reported as -8% and the Z score is reported as 1.54. `CC1COC(NC(=O)c2ccccc2)C(NC(=O)c2ccccc2)O1` (centres undefined) was tested, and the “% Inhibition” value was 6% and the Z score was -1.21. With `CC(C)C[C@@H](NC(=O)c1cccc(-c2ncc[nH]2)c1)C(N)=O` the “% Inhibition” value was 10% and the Z score was -1.36. With `CCN(C(=O)CN1CCCCCC1)C1CC1` the “% Inhibition” value was -17% and the Z score was 3.21. In the case of `Cc1cc(C)n(CC(=O)N2CCC(CCn3c(C)cnc3C)CC2)n1`, the “% Inhibition” value is reported as -11% and the Z score is reported as 1.43. `O=C(NCc1ccncc1)N[C@@H](C1CCCC1)C(F)(F)F` was tested, and the “% Inhibition” value was -9% and the Z score was 0.87. For `OC1(c2ccc3c(c2)CN(Cc2ccsc2)CCO3)CCN(c2ccccc2F)CC1`, the “% Inhibition” value was 12% and the Z score was -1.53. `CCN1C=NS(=O)(=O)c2ccc(C)cc21` was tested, and the “% Inhibition” value was -9% and the Z score was 1.02. In the case of `C[C@H]1CS(=O)(=O)CCN1Cc1nnc(-c2ccc(F)cc2)o1`, the “% Inhibition” value is reported as 4% and the Z score is reported as -0.62. `O=C(CCCc1ccccc1)N1CCN(Cc2ccn[nH]2)CC1` was tested, and the “% Inhibition” value was -3% and the Z score was 0.52. With `CC(C)(O)CN(Cc1ccccc1)C(=O)NC1CC2CCC1O2` (centres undefined) the “% Inhibition” value was 5% and the Z score was -0.53. In the case of `COc1ccccc1-c1nc2c(cnn2Cc2cccc(F)c2)[nH]1`, the “% Inhibition” value is reported as -13% and the Z score is reported as 1.92. `CN(C)c1nsc(NC(c2ccc3c(c2)CCO3)[C@H]2C[C@@H](O)C2)n1` (some centres undefined) was tested, and the “% Inhibition” value was -18% and the Z score was 1.86. In the case of `Cc1[nH]n(-c2nc3c(c(=O)[nH]2)CCCC3)c(=O)c1CCO`, the “% Inhibition” value is reported as -6% and the Z score is reported as 0.91. For `CCN(CC)C(N)=NCc1cc(Cl)c2c(c1)OCCCO2`, the “% Inhibition” value was -4% and the Z score was 0.39. For `OCCCN(Cc1ccccc1Cl)c1cc([C@H]2CCOC2)ncn1`, the “% Inhibition” value was 5% and the Z score was -0.95.
